Measured values as given in the supplement of paper PMC12632987.
Over roughly 4,500 sequences, “median log2 fold change of GCK-ALFA target abundance (FLAG IP / Myc IP barcode read proportion)” has its median near 0.078; the lowest 2% begin near -0.6. The list shows a part of the results.

B1: GBRAP_128_3250 (protein)
chain: PNPEVVAYAEEFVDRLVAADEEEARRIAEEFAEYLLTISTEEAEVAIEVVEERLHLLSPEHLDILADVLREHRPRFSPEKANLVAGLEVAALNEREELEE
B2: GBRAP_122_2943 (protein)
chain: AATAARLQALIDAMVAALDAGDDAALQALADELVALFDTISPEEAVAAVQALLAAVADNPEKRERALQALIAAFAKHQPLTPAQEAAADVVAEAFDELSE
B3: GBRAP_14_3837 (protein)
chain: MEEIKKILEETAKEIAKDLSELAGLDEEEVKKRLLEIVKKALELYEKTGDIEKALEYFEEESLKLVKELLKDKSPELQAEALAIVRVEIGEARLEIEELL
B4: GBRAP_52_5977 (protein)
chain: MEEEARRIAEELVRLRLAGDEEGAEKLIKEVVETKSEEFIEKVLEALAEMAKTADPATLDAIVDVALMLEDAALEAGFDEARVEAGVARVAAAAVAALAA
B5: GBRAP_137_3627 (protein)
chain: ATVTIELRRYEDVVEITITLDDPEKAEAAAELVEDVAHEEGALAVSIELEEDGTLVVEVWVPRDKAEALLARLVERLTTELGATVVIRDLDTGEVRVVTP
B6: GBRAP_52_6266 (protein)
chain: MREELREQVEEIFELVKEGKLEEARKLARELVESLNEEELELFIKELAEFAKTISKEEIPYAEKTVEIIAEEMEKAGVPEELVSLFEAEAYGALYEREKK
B7: GBRAP_78_6618 (protein)
chain: EKKEEIIKLLEKAEELMREIRKREPEVADLAAEAAVLAGTALLMVDTGEESKEEIIKELEEALEQAKKLLKELEGKNEESKKLAKEAIKNLKEALKLVKE
B8: GBRAP_52_5904 (protein)
chain: MREELRAQVEEMLALVRAGDLEGARALAREIAETLNDEELRLLIEEVAALVREAPLEELPAWWRLAEIMAEAFEEAGKDEVLADDLLAATAAAIHERLQR
B9: GBRAP_160_4792 (protein)
chain: DERVEKVAKRFRESLEEALKLAEGESNENRVNIFDVELGSTILELIEEGLLNDEEEEVAIEVRDELVEKIRANPDLTEEELRKLAEEAVKELRERLKKLR
B10: GBRAP_128_3277 (protein)
chain: MNEEIVKKARDFVEKLKAANKEEAKKIAEEFADWLGSISTEEAEQAVDVIIKELHKLTKEQLEILADVLEEKRDEFDPEKANLVADLQVEALNEAEEKEE
B11: GBRAP_52_6104 (protein)
chain: MREELRRRVLEILELVKAGKLEEARRRIEELVEELDDEELRLVAEELAEVAREAAPEDLDAVWRLAEMLAEALEEAGKDEVLVDYLLSSTAAALYEREQA
B12: GBRAP_125_3104 (protein)
chain: SEEELLEDLKALALALGFSEEDAEEAARLAAEFSLKNTLIAILLAEGEEELAELVEKLTEEQAKEVLKKLAEYLKKHPNATKEEVIEKFKELVEEALAKS
B13: GBRAP_160_4329 (protein)
chain: SEEFEKLIEFIDEEFEETKELIKGLSLEQVKVLIEGTFGEIIMEMSENESISDELVDFVVAERDALLATLDANPDLSEEEIKALIDEARERIKEALKKEA
B14: GBRAP_160_4086 (protein)
chain: SAAAKALIKEVQEIFDEAIEMMKDVSVEEAVNIALVALGEVALLIEEAEFLSEADKDALLALIDAGEAAIRAAADKSVEDIIALLQAFRDEIVAAIEAAD
B15: GBRAP_52_6297 (protein)
chain: MREEARRIARELVELAKAGDREGLERKVREIVETKSEEFLRLIAEELAEMAARADEETIDVIFEVMELLADEMIEGGYDEAFAEDLLARVARAGYENELR
B16: GBRAP_52_6295 (protein)
chain: MEEEAKAIADAIVEAAKAGDEETARALLREAAETKSLEFLRMVAEVLAEKAANSDEETRDIIFKVMEMFEEVMIEAGIPEEEAEDWLYRVAKAMYEAELK
B17: GBRAP_128_3259 (protein)
chain: MNEEIEKKAREFVEKLKNSDKEEKKKIAEEFAEWLASVSDEEAEQAIDVVESRLDELSAEDLEILADVLRKHLPKLSPEKARLAADLEVAALNEAEEKEE
B18: GBRAP_137_3666 (protein)
chain: MLEAEIEVENGLAFARLTYKGKKEEAEKLAEVIEDVAGKIPGIAVSVKIEEDGTLEADLFGTLEEVMKALKEIAKEMNIDVKVTLKDLETGEVREETIKA
B19: GBRAP_52_6051 (protein)
chain: MRERLAALAREALAAVRAGDLERARALLREVFETLSDEELELFVEELARLAREARPEDFDAVARLVELAEEEALEAGRPEEFADLLAARVYAALYEAEQR

What follows are binders tested against GABARAP, O95166 (assay: median log2 fold change of GCK-ALFA target abundance (FLAG IP / Myc IP barcode read proportion) (log2 ratio); each designed protein is fused to an ALFA-tag nanobody in HEK293 cells to bring the named protein to FLAG-tagged glucokinase (GCK); Myc marks an untargeted standard; higher = target protein stabilised (more abundant)). Details: target protein: 3xFLAG-MCP-GCK-ALFA reporter; HEK293 landing pad (RPLP).
Chain of GABARAP, O95166 (O95166 whole entry, the tested form may be a part): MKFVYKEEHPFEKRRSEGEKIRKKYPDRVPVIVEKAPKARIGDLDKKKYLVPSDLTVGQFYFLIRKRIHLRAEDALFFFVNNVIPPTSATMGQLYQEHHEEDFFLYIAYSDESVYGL
In short: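 An ALFA-nanobody-fused binder library was recombined into HEK293 landing-pad cells and induced with 2 μg mL^−1 doxycycline. Cells were transfected with a plasmid expressing a FLAG-tagged target and a Myc-tagged standard. After 48 h, lysates underwent anti-FLAG and anti-Myc immunoprecipitation, and circular RNA barcodes were reverse transcribed, amplified and sequenced. Target abundance is the per-binder median log2 ratio of FLAG to Myc barcode read proportions. Barcodes needed ≥10^−7 proportion in both replicates, binders ≥3 barcodes per replicate, and a 10^−6 pseudocount was added; the two replicates were pooled.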

Binder	median log2 fold change
B1	0.123
B2	0.334
B3	0.159
B4	-0.178
B5	-0.0361
B6	0.0302
B7	0.306
B8	-0.644
B9	0.0289
B10	0.254
B11	0.065
B12	-0.801
B13	-0.22
B14	0.000671
B15	-0.247
B16	0.141
B17	0.31
B18	0.331
B19	0.0249
